Whole data set: some 1,400 sequences, median “thermal melting temperature (Tm) of peptide-HLA complex” near 60, cut for the lowest 2% near 45. Some of the results follow.
Molecular target: HLA-B*07:02
Test: thermal melting temperature (Tm) of peptide-HLA complex; higher = more thermostable pHLA complex
Details: C1R-B*07:02
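Note: cell lysates heated 10 min at 37–73 °C, remaining pHLA pulled down with pan-class I antibody, peptides quantified by DIA-MS versus 37 °C, Tm where half the complex is lost.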

**Q.** VPNQKRLTLL was tested. Which thermal melting temperature did it give?
**A.** 62.4 °C

**Q.** With NPNLRKNVL as the sequence, how does the thermal melting temperature read?
**A.** 57.4 °C

**Q.** For KPNEFASQINL, which thermal melting temperature is on record?
**A.** 61.6 °C

**Q.** NPHEPWNRL was tested. Which thermal melting temperature did it give?
**A.** 56.8 °C

**Q.** With SPYPWPLNHI as the sequence, how does the thermal melting temperature read?
**A.** 61.1 °C

**Q.** How did the thermal melting temperature turn out when FPRLPPASV was run?
**A.** 61.7 °C

**Q.** SPITGRSKL was tested. Which thermal melting temperature did it give?
**A.** 61.3 °C

**Q.** QPQFQRQGL was tested. Which thermal melting temperature did it give?
**A.** 60.4 °C

**Q.** How did the thermal melting temperature turn out when RPYEPINSI was run?
**A.** 59.8 °C

**Q.** With AIRNAMGSL as the sequence, how does the thermal melting temperature read?
**A.** 55.7 °C

**Q.** For KPIPLPRF, which thermal melting temperature is on record?
**A.** 53.2 °C

**Q.** How did the thermal melting temperature turn out when QPRLFTMDL was run?
**A.** 60.2 °C

**Q.** Which thermal melting temperature does the source give for LPKVGLIAF here?
**A.** 62.7 °C

**Q.** With EPRYALTTTL as the sequence, how does the thermal melting temperature read?
**A.** 57.8 °C

**Q.** IPYGERITL was tested. Which thermal melting temperature did it give?
**A.** 61.4 °C

**Q.** For APKAPAATSIL, which thermal melting temperature is on record?
**A.** 62 °C

Source: the supplement of paper PMC7726561
